# Test results reported in PubChem BioAssay AID1345083 (National Center for Advancing Translational Sciences (NCATS), 2018).
# The whole screen tested about 94,000 compounds, of which about 6,200 (6.6%) were called active. Inconclusive results, whose numbers are uncertain, are shown with a selection of clear calls. Calls come from the whole dose curve; as a rule, active = well fitted inhibition curve with a large enough effect; inconclusive = small, poorly fitted or top-dose-only effect; inactive = flat fitted curve, though single readings scatter. Potencies beside an inconclusive call are fits to weak or partial responses and may not hold up.
# Experiment: Cytotoxic Profiling in HEK 293 Cell Line of Diverse Libraries Using Quantitative High-Throughput Screening; note: nearly all actives have a fitted effect of over 60% in size
# Settings: HEK 293 viability, ATP luminescence (CellTiter-Glo), 48-72 h; series mostly up to 115 µM
# Procedure, shortened: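 Luminescence from cellular ATP, measured with CellTiter-Glo, indicates HEK 293 viability. Cells plated at 250 cells/well are treated with compound for 48 or 72 hr at 37 degree Celsius before reagent addition.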
# Potency is the fitted concentration of half-maximal effect; tags give direction and shape of the fitted curve.
row,Structure (SMILES),Potency
1,COc1ccc(C(=O)N2CCC(C(=O)N3CCC(c4nc5ncccc5[nH]4)CC3)CC2)cc1,inactive
2,CC1=C[C@@H](CNCc2ccccc2F)[C@H](C(C)C)C[C@H]1Cc1nc2c(C)cccc2[nH]1,active: 25.1 µM
3,O=C(NC1=N[C@@]23CO[C@H](c4ccccc4)C[C@@H]2CC(=O)[C@H]3S1)C1CC1,"inconclusive: 89.1 µM [inhibitor, single point]"
4,COc1ccc(C(=O)NCCn2ccn3nc(-c4ccc(F)cc4)cc3c2=O)cc1OC,"inconclusive: 44.7 µM [inhibitor, partial curve, poor fit]"
5,Cc1ccc2oc([C@H]3CCN(C(=O)C4CC4)C3)nc2c1,"inconclusive: 126 µM [inhibitor, partial curve]"
6,Cc1cc(=O)n(CC(=O)Nc2ccccc2F)c(-c2ccccc2)n1,inactive
7,CCn1cc(S(=O)(=O)N2CCOc3ccc(CN4CCCCCC4)cc3C2)cn1,"inconclusive: 89.1 µM [inhibitor, single point]"
8,O=C1Nc2ccccc2CC12CCN(Cc1ccc(Cl)cc1)CC2,active: 89.1 µM
9,Cc1ccc(-c2cc3c(=O)n(CCNC(=O)Cc4cccc(F)c4)ccn3n2)cc1C,inactive
10,O=C(c1cccc(O)c1)N1CCC2(CC1)Nc1ccccc1NC2=O,"inconclusive: 50.1 µM [inhibitor, partial curve, poor fit]"
11,CCC(c1cccs1)N1C(=O)[C@H]2CN(S(=O)(=O)c3ccc(Cl)cc3)C[C@H]2C1=O (stereo partly specified),"inconclusive: 70.8 µM [inhibitor, single point]"
12,COc1ccc(-c2cc(N3CCCN(C(=O)c4ccc(F)c(Cl)c4)CC3)n[nH]2)cc1,"inconclusive: 50.1 µM [inhibitor, partial curve, poor fit]"
13,CSCCNC(=O)c1ccc2nnc(-c3cccc(OC(F)(F)F)c3)n2c1,"inconclusive: 31.6 µM [inhibitor, full curve]"
14,CC1=C[C@@H](CNCc2ccccc2O)[C@H](C(C)C)C[C@H]1Cc1nc2c(C)cccc2[nH]1,"inconclusive: 17.8 µM [inhibitor, full curve, poor fit]"
15,CN(Cc1ccc(-c2ccccc2)cc1)C(=O)c1cccc(Cl)c1,"inconclusive: 56.2 µM [inhibitor, partial curve, poor fit]"
16,CCOc1ccccc1C1NC(=O)N(CC(=O)Nc2c(C)cc(C)cc2C)C2=C1C(=O)OC2 (stereo unspecified),inactive
17,COCCNC(=O)C(C)[C@@H]1CCc2c(C)cc(OC)c(C)c2C1 (stereo partly specified),"inconclusive: 112 µM [inhibitor, single point]"
18,COc1ccc(-n2c(=O)c(C(=O)NCc3cccc(F)c3)nc3cccnc32)cc1,inactive
19,O=C1C(N2CCN(S(=O)(=O)c3ccccc3Cl)CC2)CCN1CCc1ccccc1 (stereo unspecified),"inconclusive: 56.2 µM [inhibitor, partial curve, poor fit]"
20,O=C(c1ccccc1)N1CCCN(c2cc(-c3ccccc3)[nH]n2)CC1,"inconclusive: 79.4 µM [inhibitor, single point]"
21,COc1cccc(C(=O)NC2CCCN(CCn3nc4n(c3=O)CCCC4)C2)c1 (stereo unspecified),inactive

row,Structure (SMILES),Potency
1,CCN1C(=O)C2(CCN(S(=O)(=O)Cc3ccc(Cl)cc3)CC2)c2ccccc21,active: 35.5 µM
2,COc1ccc(CN2CC3(CCN(S(=O)(=O)Cc4ccccc4F)CC3)C2=O)cc1,"inconclusive: 79.4 µM [inhibitor, partial curve, poor fit]"
3,OCC1(Cc2ccc(F)cc2F)CCCN(c2cnc3ccccc3n2)C1 (stereo unspecified),active: 39.8 µM
4,CCNC(=O)NC[C@H]1O[C@H](Cc2cc(CN(C)Cc3ccccc3)on2)CC[C@@H]1O,inactive
5,COc1cc(OC)cc(C(=O)N2CCCC(n3cc(-c4nc(-c5ccccc5)no4)nn3)C2)c1 (stereo unspecified),"inconclusive: 22.4 µM [inhibitor, partial curve, poor fit]"
6,Cc1nn(-c2ccccc2)c2c1C(C)N(C1CCN(C(=O)c3cccc(C(F)(F)F)c3)C1)C2=O (stereo unspecified),active: 35.5 µM
7,COc1ccc(NC(=O)N2CCCC(c3noc(COc4ccccc4F)n3)C2)c(C)c1 (stereo unspecified),"inconclusive: 50.1 µM [inhibitor, partial curve, poor fit]"
8,O=C(CN1CC(=O)NC1=O)NCc1noc(-c2ccc3c(c2)OCO3)n1,"inconclusive: 89.1 µM [inhibitor, single point]"
9,O=C(CN1C(=O)NC2(CCCCC2)C1=O)N1CCN(c2ccc(F)cc2)CC1,inactive
10,O=S(=O)(NCC1CN(CC2CC2)CC12CCCCC2)c1cccc(F)c1 (stereo unspecified),"inconclusive: 89.1 µM [inhibitor, single point]"
11,O=C(c1coc(COc2cccc(C(F)(F)F)c2)n1)N1CCCCCCC1,"inconclusive: 50.1 µM [inhibitor, partial curve, poor fit]"
12,Cc1ccc(C)c(C(=O)NC2CCN(c3cc(-c4ccc(F)cc4)[nH]n3)C2)c1 (stereo unspecified),"inconclusive: 50.1 µM [inhibitor, partial curve, poor fit]"
13,Cc1nn(-c2ccccc2)c2c1C(C1CC1)N(C1CN([S+](=O)([O-])c3c(C)noc3C)C1)C2=O (stereo unspecified),inactive
14,O=C(Nc1ccc(Cl)nc1)c1cc2cccnn2n1,inactive
15,CCOC(=O)C1=CN(CC(=O)Nc2ccc(C)cc2Cl)S(=O)(=O)N=C1C,"inconclusive: 89.1 µM [inhibitor, single point]"
16,Cc1cc(C)cc(-c2ccc(CN3CCCC(NC(=O)C4CC4)C3)cc2)c1 (stereo unspecified),inactive
17,Cc1nn(C)cc1CN1CCc2n[nH]c(=O)n2CC1,inactive
18,CCc1ccc(NC(=O)c2cc3n(n2)CC(c2ccc(Cl)cc2)OC3)cc1 (stereo unspecified),"inconclusive: 50.1 µM [inhibitor, partial curve, poor fit]"
19,O=C(NCC1CCN(c2cc(-c3ccc(Cl)cc3)[nH]n2)CC1)c1cc(C2CC2)[nH]n1,"inconclusive: 79.4 µM [inhibitor, partial curve, poor fit]"
20,O=c1cc(-c2ccccn2)oc2c(NCc3ccccc3)nccc12,"inconclusive: 100 µM [inhibitor, partial curve, poor fit]"
